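Results reflect a 48-hour exposure of cells in 96-well plates to compound at five concentrations. Here, GI50 denotes the concentration required for 50% inhibition of growth. Definition used: TGI = concentration required for complete inhibition of growth.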 Some results are limits rather than exact numbers.

The results in this text go back to PubChem BioAssay (NCI).

This assay has as its system NCI-H322M lung. The assay can be described thus: DTP human tumour cell line panel, 48 h.
A word on the GI50: it is the concentration at which growth is held to half of that of the control. One may read the TGI as the concentration at which net growth stops. Consider `N#Cc1c(NC(=O)c2ccccc2C(F)(F)F)sc2c1CCC(=O)C2`, for which the GI50 is 5.88 µM and the TGI was over 100 µM.
For `COc1ccc2[nH]cc(-c3nc(N)nnc3-c3cn(C)c4ccc(Br)cc34)c2c1`, in that order: 3.85 µM and 22.5 µM.
As for `O=C(N/N=C/c1ccc([N+](=O)[O-])s1)c1[nH]c2ccc(Br)cc2c1-c1ccccc1`, the GI50 was 2.57 µM and the concentration for total growth inhibition (TGI) is over 74.9 µM.
